Laboratory results taken from publication PMC7880690, “Chemical genetics and proteome-wide site mapping reveal cysteine MARylation by PARP-7 on immune-relevant protein targets” (eLife, 2021).

Columns and labels:
PARP10cat = molecular target: T1, PARP10cat (Homo sapiens, UniProt Q53GL7); test: ADP-ribosylation plate assay, PARP10cat
T1 sequence (Q53GL7 806-1025 limits assumed): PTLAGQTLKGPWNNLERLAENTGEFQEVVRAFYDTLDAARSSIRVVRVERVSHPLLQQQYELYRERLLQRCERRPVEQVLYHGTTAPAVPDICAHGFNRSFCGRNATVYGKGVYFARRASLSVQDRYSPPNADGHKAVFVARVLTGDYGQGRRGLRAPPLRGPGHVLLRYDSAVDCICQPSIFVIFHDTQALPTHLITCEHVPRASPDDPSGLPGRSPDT

PARP12cat = molecular target: T2, PARP12cat (Homo sapiens, UniProt Q9H0J9); test: ADP-ribosylation plate assay, PARP12cat
T2 sequence (Q9H0J9 484-698 limits assumed): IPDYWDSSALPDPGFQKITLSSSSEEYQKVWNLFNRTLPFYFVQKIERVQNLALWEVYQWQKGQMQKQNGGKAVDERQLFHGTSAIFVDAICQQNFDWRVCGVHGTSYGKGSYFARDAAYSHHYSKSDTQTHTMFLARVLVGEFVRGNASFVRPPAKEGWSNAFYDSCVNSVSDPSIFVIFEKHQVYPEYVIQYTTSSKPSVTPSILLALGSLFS

MycX2-PARP-13.2 = conditions: HEK 293 T cell time course, 1 μM

N#Cc1ccc(N2CCN(C(=O)c3cc(Cc4n[nH]c(=O)c5ccccc45)ccc3F)CC2)nc1 [Phthal01, 6-(4-(2-fluoro-5-((4-oxo-3,4-dihydrophthalazin-1-yl)methyl)benzoyl)piperazin-1-yl)nicotinonitrile]
IC50 (PARP10cat): 860 ± 300 nM | IC50 (PARP12cat): > 3000 nM | protein levels of ectopically expressed MycX2-PARP-13.2 (MycX2-PARP-13.2): increased
